# In the supplement of paper PMC8728848:
# Some of the results follow.
# B1: Banana lectin (Musa acuminata) (protein)
# chain: MNGAIKVGAWGGNGGSAFDMGPAYRIISVKIFSGDVVDAVDVTFTYYGKTETRHFGGSGGTPHEIVLQEGEYLVGMKGEFGNYHGVVVVGKLGFSTNKKSYGPFGNTGGTPFSLPIAAGKISGFFGRGGDFIDAIGVYLEP
# Columns and labels:
# Test in all cases: glycan array binding signal (z-score within array); higher = stronger binding
# Details in all cases: glycan notation: IUPAC condensed, linker removed
# [1] = target: Man(a1-2)Man(a1-3)[Man(a1-2)Man(a1-6)]Man
# Outline: (§1)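 From the Consortium for Functional Glycomics database, 3228 arrays were curated, keeping only those whose protein sequence was available. Binding is given as a within-array Z-score averaged across arrays sharing a protein sequence and across linkers. Negative Z-scores can be read as non-binding.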
# [2] = target: Man(a1-2)Man(a1-3)[Man(a1-2)Man(a1-6)]Man(a1-6)[Man(a1-2)Man(a1-2)Man(a1-3)]Man
# Outline: as §1
# [3] = target: Man(a1-2)Man(a1-3)[Man(a1-2)Man(a1-6)]Man(a1-6)[Man(a1-2)Man(a1-2)Man(a1-3)]Man(b1-4)GlcNAc(b1-4)GlcNAc
# Outline: as §1
# [4] = target: Man(a1-2)Man(a1-3)[Man(a1-6)]Man(a1-6)[Man(a1-2)Man(a1-3)]Man(b1-4)GlcNAc(b1-4)GlcNAc
# Outline: as §1
# [5] = target: Man(a1-2)Man(a1-6)[Man(a1-3)]Man(a1-6)[Man(a1-2)Man(a1-2)Man(a1-3)]Man
# Outline: as §1
# [6] = target: Man(a1-2)Man(a1-6)[Man(a1-3)]Man(a1-6)[Man(a1-2)Man(a1-2)Man(a1-3)]Man(b1-4)GlcNAc(b1-4)GlcNAc
# Outline: as §1
# [7] = target: Man(a1-3)[Man(a1-6)]Man
# Outline: as §1
# [8] = target: Man(a1-3)[Man(a1-6)]Man(a1-6)[Man(a1-2)Man(a1-3)]Man(b1-4)GlcNAc(b1-4)GlcNAc
# Outline: as §1
# [9] = target: Man(a1-3)[Man(a1-6)]Man(a1-6)[Man(a1-3)]Man
# Outline: as §1
# [10] = target: Man(a1-3)[Man(a1-6)]Man(a1-6)[Man(a1-3)]Man(b1-4)GlcNAc(b1-4)GlcNAc
# Outline: as §1
# [11] = target: Man(a1-3)[Man(a1-6)]Man(b1-4)GlcNAc(b1-4)GlcNAc
# Outline: as §1
# [12] = target: Man(a1-3)[Man(a1-6)]Man(b1-4)GlcNAc(b1-4)[Fuc(a1-6)]GlcNAc
# Outline: as §1
# [13] = target: Man(a1-6)Man
# Outline: as §1
# [14] = target: Man(b1-4)GlcNAc
# Outline: as §1
# [15] = target: MurNAc(b1-4)GlcNAc
# Outline: as §1
# [16] = target: Neu5Ac(a2-3)Gal
# Outline: as §1
# [17] = target: Neu5Ac(a2-3)Gal(b1-3)GalNAc
# Outline: as §1
# [18] = target: Neu5Ac(a2-3)Gal(b1-3)GalNAc(b1-3)Gal(a1-4)Gal(b1-4)Glc
# Outline: as §1
# [19] = target: Neu5Ac(a2-3)Gal(b1-3)GalNAc(b1-4)Gal(b1-4)Glc
# Outline: as §1
# [20] = target: Neu5Ac(a2-3)Gal(b1-3)GalNAc(b1-4)[Neu5Ac(a2-3)]Gal(b1-4)Glc
# Outline: as §1
# [21] = target: Neu5Ac(a2-3)Gal(b1-3)GalNAc(b1-4)[Neu5Ac(a2-8)Neu5Ac(a2-3)]Gal(b1-4)Glc
# Outline: as §1
# [22] = target: Neu5Ac(a2-3)Gal(b1-3)GalNAc6S
# Outline: as §1
# [23] = target: Neu5Ac(a2-3)Gal(b1-3)GlcNAc
# Outline: as §1
# [24] = target: Neu5Ac(a2-3)Gal(b1-3)GlcNAc(b1-2)Man
# Outline: as §1
# [25] = target: Neu5Ac(a2-3)Gal(b1-3)GlcNAc(b1-2)Man(a1-3)[GlcNAc(b1-4)][Neu5Ac(a2-3)Gal(b1-3)GlcNAc(b1-2)Man(a1-6)]Man(b1-4)GlcNAc(b1-4)GlcNAc
# Outline: as §1
# [26] = target: Neu5Ac(a2-3)Gal(b1-3)GlcNAc(b1-2)Man(a1-3)[Neu5Ac(a2-3)Gal(b1-3)GlcNAc(b1-2)Man(a1-6)]Man(b1-4)GlcNAc(b1-4)GlcNAc
# Outline: as §1
# [27] = target: Neu5Ac(a2-3)Gal(b1-3)GlcNAc(b1-2)[Neu5Ac(a2-3)Gal(b1-3)GlcNAc(b1-4)]Man(a1-6)[Neu5Ac(a2-3)Gal(b1-3)GlcNAc(b1-2)Man(a1-3)]Man(b1-4)GlcNAc(b1-4)GlcNAc
# Outline: as §1
# [28] = target: Neu5Ac(a2-3)Gal(b1-3)GlcNAc(b1-3)Gal(b1-3)GlcNAc
# Outline: as §1
# [29] = target: Neu5Ac(a2-3)Gal(b1-3)GlcNAc(b1-3)Gal(b1-4)GlcNAc
# Outline: as §1
# [30] = target: Neu5Ac(a2-3)Gal(b1-3)GlcNAc(b1-3)GalNAc
# Outline: as §1
# [31] = target: Neu5Ac(a2-3)Gal(b1-3)GlcNAc(b1-6)GalNAc
# Outline: as §1
# [32] = target: Neu5Ac(a2-3)Gal(b1-3)GlcNAc6S
# Outline: as §1
# [33] = target: Neu5Ac(a2-3)Gal(b1-3)[Fuc(a1-4)]GlcNAc
# Outline: as §1
# [34] = target: Neu5Ac(a2-3)Gal(b1-3)[Fuc(a1-4)]GlcNAc(b1-3)Gal(b1-3)[Fuc(a1-4)]GlcNAc
# Outline: as §1
# [35] = target: Neu5Ac(a2-3)Gal(b1-3)[Fuc(a1-4)]GlcNAc(b1-3)Gal(b1-4)[Fuc(a1-3)]GlcNAc
# Outline: as §1
# [36] = target: Neu5Ac(a2-3)Gal(b1-3)[GlcNAc(b1-6)]GalNAc
# Outline: as §1
# [37] = target: Neu5Ac(a2-3)Gal(b1-3)[Neu5Ac(a2-6)]GalNAc
# Outline: as §1
# [38] = target: Neu5Ac(a2-3)Gal(b1-3)[Neu5Ac(a2-6)]GlcNAc(b1-3)[Fuc(a1-3)[Gal(b1-4)]GlcNAc(b1-6)]Gal(b1-4)Glc
# Outline: as §1
# [39] = target: Neu5Ac(a2-3)Gal(b1-3)]Neu5Ac(a2-3)Gal(b1-4)]GlcNAc
# Outline: as §1
# [40] = target: Neu5Ac(a2-3)Gal(b1-4)Glc
# Outline: as §1
# [41] = target: Neu5Ac(a2-3)Gal(b1-4)GlcNAc
# Outline: as §1
# [42] = target: Neu5Ac(a2-3)Gal(b1-4)GlcNAc(b1-2)Man
# Outline: as §1
# [43] = target: Neu5Ac(a2-3)Gal(b1-4)GlcNAc(b1-2)Man(a1-3)[GlcNAc(b1-4)][Neu5Ac(a2-3)Gal(b1-4)GlcNAc(b1-2)Man(a1-6)]Man(b1-4)GlcNAc(b1-4)GlcNAc
# Outline: as §1
# [44] = target: Neu5Ac(a2-3)Gal(b1-4)GlcNAc(b1-2)Man(a1-3)[Neu5Ac(a2-3)Gal(b1-4)GlcNAc(b1-2)Man(a1-6)]Man(b1-4)GlcNAc(b1-4)GlcNAc
# Outline: as §1
# [45] = target: Neu5Ac(a2-3)Gal(b1-4)GlcNAc(b1-2)Man(a1-3)[Neu5Ac(a2-3)Gal(b1-4)GlcNAc(b1-2)Man(a1-6)]Man(b1-4)GlcNAc(b1-4)[Fuc(a1-6)]GlcNAc
# Outline: as §1
binder,measurement,setting,value
B1,glycan array binding signal (z-score),[1],2.88
same,glycan array binding signal (z-score),[2],7.92
same,glycan array binding signal (z-score),[3],3.85
same,glycan array binding signal (z-score),[4],6.18
same,glycan array binding signal (z-score),[5],6.72
same,glycan array binding signal (z-score),[6],7.63
same,glycan array binding signal (z-score),[7],3.32
same,glycan array binding signal (z-score),[8],5.95
same,glycan array binding signal (z-score),[9],2.33
same,glycan array binding signal (z-score),[10],3.55
same,glycan array binding signal (z-score),[11],7.64
same,glycan array binding signal (z-score),[12],3.33
same,glycan array binding signal (z-score),[13],-0.076
same,glycan array binding signal (z-score),[14],-0.19
same,glycan array binding signal (z-score),[15],-0.194
same,glycan array binding signal (z-score),[16],-0.193
same,glycan array binding signal (z-score),[17],-0.193
same,glycan array binding signal (z-score),[18],-0.193
same,glycan array binding signal (z-score),[19],-0.165
same,glycan array binding signal (z-score),[20],-0.193
same,glycan array binding signal (z-score),[21],-0.19
same,glycan array binding signal (z-score),[22],-0.209
same,glycan array binding signal (z-score),[23],-0.194
same,glycan array binding signal (z-score),[24],-0.195
same,glycan array binding signal (z-score),[25],-0.143
same,glycan array binding signal (z-score),[26],-0.186
same,glycan array binding signal (z-score),[27],0.276
same,glycan array binding signal (z-score),[28],-0.192
same,glycan array binding signal (z-score),[29],-0.195
same,glycan array binding signal (z-score),[30],-0.193
same,glycan array binding signal (z-score),[31],-0.194
same,glycan array binding signal (z-score),[32],-0.194
same,glycan array binding signal (z-score),[33],-0.191
same,glycan array binding signal (z-score),[34],-0.14
same,glycan array binding signal (z-score),[35],-0.136
same,glycan array binding signal (z-score),[36],-0.195
same,glycan array binding signal (z-score),[37],-0.191
same,glycan array binding signal (z-score),[38],-0.19
same,glycan array binding signal (z-score),[39],-0.196
same,glycan array binding signal (z-score),[40],-0.193
same,glycan array binding signal (z-score),[41],-0.192
same,glycan array binding signal (z-score),[42],-0.19
same,glycan array binding signal (z-score),[43],-0.191
same,glycan array binding signal (z-score),[44],-0.186
same,glycan array binding signal (z-score),[45],-0.172
